# Reference: the supplement of paper PMC8728848
# This is one part of the list.
# B1: MUB40 (Lactobacillus reuteri) (peptide)
# chain: CTAEGIKKFEGDGYELFKDNFPAGEKFDNDDTNDQFYTVIF
# Key:
# Test in all cases: glycan array binding signal (z-score within array); higher = stronger binding
# Details in all cases: glycan notation: IUPAC condensed, linker removed
# GalNAc(b1-4)GlcNAc = target: GalNAc(b1-4)GlcNAc
# Outline: (§1)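 Negative Z-scores can be read as non-binding. The Z-score is calculated within each array and then averaged across arrays of one protein sequence at different concentrations or buffers and across linkers. Arrays, 3228 in all, were curated from the Consortium for Functional Glycomics database and kept only where the protein sequence was available.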
# [1] = target: GalNAc(b1-4)GlcNAc(b1-2)Man
# Outline: as §1
# [2] = target: GalNAc(b1-4)GlcNAc(b1-2)Man(a1-3)[GalNAc(b1-4)GlcNAc(b1-2)Man(a1-6)]Man(b1-4)GlcNAc(b1-4)GlcNAc
# Outline: as §1
# [3] = target: GalNAc(b1-4)GlcNAc(b1-3)GalNAc(b1-4)GlcNAc
# Outline: as §1
# GalNAc(b1-4)GlcNAc6S = target: GalNAc(b1-4)GlcNAc6S
# Outline: as §1
# GalNAc(b1-6)GalNAc = target: GalNAc(b1-6)GalNAc
# Outline: as §1
# GalNAc3S(b1-4)GlcNAc = target: GalNAc3S(b1-4)GlcNAc
# Outline: as §1
# GalNAc3S(b1-4)GlcNAc3S = target: GalNAc3S(b1-4)GlcNAc3S
# Outline: as §1
# [4] = target: GalNAc3S(b1-4)[Fuc(a1-3)]GlcNAc
# Outline: as §1
# GalNAc4S6S(b1-4)GlcNAc = target: GalNAc4S6S(b1-4)GlcNAc
# Outline: as §1
# GalNAc6S(b1-4)GlcNAc = target: GalNAc6S(b1-4)GlcNAc
# Outline: as §1
# Glc(a1-4)Glc = target: Glc(a1-4)Glc
# Outline: as §1
# [5] = target: Glc(a1-4)Glc(a1-4)Glc(a1-4)Glc
# Outline: as §1
# Glc(a1-6)Glc(a1-6)Glc = target: Glc(a1-6)Glc(a1-6)Glc
# Outline: as §1
# [6] = target: Glc(a1-6)Glc(a1-6)Glc(a1-6)Glc
# Outline: as §1
# Glc(b1-4)Glc = target: Glc(b1-4)Glc
# Outline: as §1
# Glc(b1-6)Glc = target: Glc(b1-6)Glc
# Outline: as §1
# GlcA(b1-3)Gal = target: GlcA(b1-3)Gal
# Outline: as §1
# GlcA(b1-3)GlcNAc = target: GlcA(b1-3)GlcNAc
# Outline: as §1
# GlcA(b1-6)Gal = target: GlcA(b1-6)Gal
# Outline: as §1
# [7] = target: GlcA3S(b1-3)Gal(b1-4)GlcNAc(b1-2)Man
# Outline: as §1
# [8] = target: GlcA3S(b1-3)Gal(b1-4)GlcNAc(b1-3)Gal(b1-4)Glc
# Outline: as §1
# [9] = target: GlcNAc(a1-3)Gal(b1-4)GlcNAc
# Outline: as §1
# [10] = target: GlcNAc(a1-4)Gal(b1-3)GlcNAc
# Outline: as §1
# [11] = target: GlcNAc(a1-4)Gal(b1-4)GalNAc
# Outline: as §1
# [12] = target: GlcNAc(a1-4)Gal(b1-4)GlcNAc
# Outline: as §1
# [13] = target: GlcNAc(a1-4)Gal(b1-4)GlcNAc(b1-3)Gal(b1-4)Glc
# Outline: as §1
# [14] = target: GlcNAc(a1-4)Gal(b1-4)GlcNAc(b1-3)Gal(b1-4)GlcNAc
# Outline: as §1
# [15] = target: GlcNAc(a1-4)Gal(b1-4)GlcNAc(b1-3)Gal(b1-4)GlcNAc(b1-3)Gal(b1-4)GlcNAc
# Outline: as §1
# [16] = target: GlcNAc(a1-4)Gal(b1-4)GlcNAc(b1-3)Gal(b1-4)[Fuc(a1-3)]GlcNAc(b1-3)Gal(b1-4)[Fuc(a1-3)]GlcNAc
# Outline: as §1
# [17] = target: GlcNAc(a1-6)Gal(b1-4)GlcNAc
# Outline: as §1
# [18] = target: GlcNAc(b1-2)Gal(b1-3)GalNAc
# Outline: as §1
# [19] = target: GlcNAc(b1-2)Man(a1-3)[GlcNAc(b1-2)Man(a1-6)]Man(b1-4)GlcNAc(b1-4)GlcNAc
# Outline: as §1
# [20] = target: GlcNAc(b1-2)Man(a1-3)[GlcNAc(b1-2)Man(a1-6)]Man(b1-4)GlcNAc(b1-4)[Fuc(a1-6)]GlcNAc
# Outline: as §1
# [21] = target: GlcNAc(b1-2)Man(a1-3)[GlcNAc(b1-4)][GlcNAc(b1-2)Man(a1-6)]Man(b1-4)GlcNAc(b1-4)GlcNAc
# Outline: as §1
# [22] = target: GlcNAc(b1-2)Man(a1-3)[GlcNAc(b1-4)][GlcNAc(b1-2)Man(a1-6)]Man(b1-4)GlcNAc(b1-4)[Fuc(a1-6)]GlcNAc
# Outline: as §1
# [23] = target: GlcNAc(b1-2)[GlcNAc(b1-4)]Man(a1-3)[GlcNAc(b1-2)Man(a1-6)]Man(b1-4)GlcNAc(b1-4)GlcNAc
# Outline: as §1
# [24] = target: GlcNAc(b1-2)[GlcNAc(b1-4)]Man(a1-3)[GlcNAc(b1-4)][GlcNAc(b1-2)Man(a1-6)]Man(b1-4)GlcNAc(b1-4)GlcNAc
# Outline: as §1
# [25] = target: GlcNAc(b1-2)[GlcNAc(b1-4)]Man(a1-3)[GlcNAc(b1-4)][GlcNAc(b1-2)[GlcNAc(b1-6)]Man(a1-6)]Man(b1-4)GlcNAc(b1-4)GlcNAc
# Outline: as §1
# [26] = target: GlcNAc(b1-2)[GlcNAc(b1-4)]Man(a1-3)[GlcNAc(b1-4)][GlcNAc(b1-2)[GlcNAc(b1-6)]Man(a1-6)]Man(b1-4)GlcNAc(b1-4)[Fuc(a1-6)]GlcNAc
# Outline: as §1
# [27] = target: GlcNAc(b1-2)[GlcNAc(b1-6)]Man(a1-6)[GlcNAc(b1-2)Man(a1-3)]Man(b1-4)GlcNAc(b1-4)GlcNAc
# Outline: as §1
# [28] = target: GlcNAc(b1-2)[GlcNAc(b1-6)]Man(a1-6)[GlcNAc(b1-2)Man(a1-3)]Man(b1-4)GlcNAc(b1-4)[Fuc(a1-6)]GlcNAc
# Outline: as §1
# [29] = target: GlcNAc(b1-2)[GlcNAc(b1-6)]Man(a1-6)[GlcNAc(b1-4)][GlcNAc(b1-2)Man(a1-3)]Man(b1-4)GlcNAc(b1-4)GlcNAc
# Outline: as §1
# GlcNAc(b1-3)Fuc = target: GlcNAc(b1-3)Fuc
# Outline: as §1
# GlcNAc(b1-3)Gal = target: GlcNAc(b1-3)Gal
# Outline: as §1
binder,measurement,setting,value
B1,glycan array binding signal (z-score),GalNAc(b1-4)GlcNAc,0.026
same,glycan array binding signal (z-score),[1],-0.385
same,glycan array binding signal (z-score),[2],0.311
same,glycan array binding signal (z-score),[3],1.24
same,glycan array binding signal (z-score),GalNAc(b1-4)GlcNAc6S,-0.402
same,glycan array binding signal (z-score),GalNAc(b1-6)GalNAc,0.429
same,glycan array binding signal (z-score),GalNAc3S(b1-4)GlcNAc,-0.296
same,glycan array binding signal (z-score),GalNAc3S(b1-4)GlcNAc3S,-0.331
same,glycan array binding signal (z-score),[4],-0.987
same,glycan array binding signal (z-score),GalNAc4S6S(b1-4)GlcNAc,-0.49
same,glycan array binding signal (z-score),GalNAc6S(b1-4)GlcNAc,-0.519
same,glycan array binding signal (z-score),Glc(a1-4)Glc,-0.248
same,glycan array binding signal (z-score),[5],-0.331
same,glycan array binding signal (z-score),Glc(a1-6)Glc(a1-6)Glc,-0.318
same,glycan array binding signal (z-score),[6],-0.391
same,glycan array binding signal (z-score),Glc(b1-4)Glc,-0.334
same,glycan array binding signal (z-score),Glc(b1-6)Glc,-0.27
same,glycan array binding signal (z-score),GlcA(b1-3)Gal,-0.373
same,glycan array binding signal (z-score),GlcA(b1-3)GlcNAc,-0.357
same,glycan array binding signal (z-score),GlcA(b1-6)Gal,-0.264
same,glycan array binding signal (z-score),[7],-0.196
same,glycan array binding signal (z-score),[8],-0.283
same,glycan array binding signal (z-score),[9],-0.324
same,glycan array binding signal (z-score),[10],-0.893
same,glycan array binding signal (z-score),[11],-0.506
same,glycan array binding signal (z-score),[12],-0.247
same,glycan array binding signal (z-score),[13],-0.351
same,glycan array binding signal (z-score),[14],-0.458
same,glycan array binding signal (z-score),[15],-0.454
same,glycan array binding signal (z-score),[16],-0.417
same,glycan array binding signal (z-score),[17],0.266
same,glycan array binding signal (z-score),[18],-0.359
same,glycan array binding signal (z-score),[19],-0.469
same,glycan array binding signal (z-score),[20],0.117
same,glycan array binding signal (z-score),[21],-0.288
same,glycan array binding signal (z-score),[22],1.21
same,glycan array binding signal (z-score),[23],0.495
same,glycan array binding signal (z-score),[24],0.537
same,glycan array binding signal (z-score),[25],0.381
same,glycan array binding signal (z-score),[26],-0.052
same,glycan array binding signal (z-score),[27],-0.318
same,glycan array binding signal (z-score),[28],0.341
same,glycan array binding signal (z-score),[29],-0.466
same,glycan array binding signal (z-score),GlcNAc(b1-3)Fuc,-0.127
same,glycan array binding signal (z-score),GlcNAc(b1-3)Gal,-0.393
